Here are results for 89 molecules from PMC4336329 (PLoS ONE, 2015).

The whole screen tested about 310,000 compounds, of which about 14,000 (4.5%) showed an effect of 50% or more. Effects have a minus sign here. Some of the results follow.
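Note: peak tail current of the secondary pulse compared with the same well before compound.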

The target of the test is human ether-à-go-go-related gene (hERG) potassium channel (human, UniProt Q12809). Description: primary screen, population patch clamp on CHO cells stably expressing hERG.
Chain of human ether-à-go-go-related gene (hERG) potassium channel (Q12809 whole entry, looked up): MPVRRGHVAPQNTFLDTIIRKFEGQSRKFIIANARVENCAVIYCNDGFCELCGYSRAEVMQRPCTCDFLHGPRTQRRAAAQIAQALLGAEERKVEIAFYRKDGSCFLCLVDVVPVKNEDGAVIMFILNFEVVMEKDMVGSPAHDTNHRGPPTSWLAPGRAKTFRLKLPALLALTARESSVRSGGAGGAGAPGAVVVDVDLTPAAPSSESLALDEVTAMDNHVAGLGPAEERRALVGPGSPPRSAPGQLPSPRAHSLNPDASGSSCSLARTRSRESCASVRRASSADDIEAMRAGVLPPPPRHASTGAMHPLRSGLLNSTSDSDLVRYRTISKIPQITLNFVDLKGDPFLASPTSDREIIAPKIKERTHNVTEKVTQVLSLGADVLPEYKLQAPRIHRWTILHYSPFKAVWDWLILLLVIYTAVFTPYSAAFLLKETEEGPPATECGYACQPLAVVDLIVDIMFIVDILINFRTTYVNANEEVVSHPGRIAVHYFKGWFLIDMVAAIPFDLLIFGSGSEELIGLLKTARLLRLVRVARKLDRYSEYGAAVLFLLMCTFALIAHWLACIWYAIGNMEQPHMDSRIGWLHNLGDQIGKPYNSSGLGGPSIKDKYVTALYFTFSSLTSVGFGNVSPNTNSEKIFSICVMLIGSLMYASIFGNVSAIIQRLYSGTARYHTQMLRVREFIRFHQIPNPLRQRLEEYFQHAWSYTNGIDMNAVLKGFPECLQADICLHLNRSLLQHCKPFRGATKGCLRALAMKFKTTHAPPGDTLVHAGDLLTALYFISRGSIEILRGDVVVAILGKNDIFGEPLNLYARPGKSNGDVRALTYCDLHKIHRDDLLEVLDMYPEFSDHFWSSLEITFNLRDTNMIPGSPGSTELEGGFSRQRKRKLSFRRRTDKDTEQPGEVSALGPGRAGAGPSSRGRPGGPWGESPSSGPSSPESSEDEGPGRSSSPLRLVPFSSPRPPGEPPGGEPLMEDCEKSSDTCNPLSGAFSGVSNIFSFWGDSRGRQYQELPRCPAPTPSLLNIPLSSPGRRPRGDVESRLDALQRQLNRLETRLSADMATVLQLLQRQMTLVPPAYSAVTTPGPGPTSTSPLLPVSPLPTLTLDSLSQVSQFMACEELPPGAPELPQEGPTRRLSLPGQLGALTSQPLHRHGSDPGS
`COc1ccc(N(C(=O)COc2ccccc2)C2C=CS(=O)(=O)C2)cc1` (centres unmarked): the “hERG current change (%, negative = inhibition) at 10uM” value was -1.57%.
Under `CC1Cc2ccccc2N1C(=O)COC(=O)Cn1cnc2ccccc2c1=O` (centres unmarked) stands -10.8%; under `COCCN=c1scc(-c2cccs2)n1/N=C(\C)c1ccco1`, -2.51%; under `Cc1ccc(NC(=O)COC(=O)C2COc3ccccc3O2)cc1S(=O)(=O)N1CCOCC1` (centres unmarked), -13.1%.
Regarding `O=C(NC1CCCC1)C(c1ccccn1)N(C(=O)c1csnn1)c1ccccc1Br` (centres unmarked), the “hERG current change (%, negative = inhibition) at 10uM” value is listed as -9.47%.
For `CCN1CCN(C(=O)NC2CCCCC2)CC1.O=C(O)C(=O)O` the value was 10.2%.
For `CCN(CC)c1ccc(/C=N/N2C(=O)c3ccccc3C2=O)cc1` the value was 5.96%; for `CCOCCCn1c(NN)nc2ccccc2c1=O`, 37.5%.
For `CC(=O)c1ccc(N2CCN(S(=O)(=O)c3c(C)[nH]c(C)c3C(=O)N3CCCCC3)CC2)cc1` the value was 8.31%; for `CCC(=O)Oc1ccc(C2N(C(=O)CC)CCN2S(=O)(=O)c2ccc(C)cc2)cc1OC` (centres unmarked), -6.79%; for `COc1cc(SC)ccc1C(=O)Nc1cccc(C2OCCCO2)c1`, -35.5%.
Consider `CCOC(=O)c1nc2ccccc2c(=O)n1-c1cccc(C)c1`, for which the “hERG current change (%, negative = inhibition) at 10uM” value was -0.452%.
Under `COc1ccc(Cl)cc1S(=O)(=O)N(C)CC(=O)NCc1ccc2c(c1)OCO2` stands -25%; under `CN(C)C(=O)c1ccc(=O)n(Cc2ccc(Cl)cc2Cl)c1`, -2.53%; under `c1ccc(C(c2nnnn2C2CCCC2)N2CCCCCC2)nc1` (centres unmarked), -13.1%.
Consider `COc1cc(/C=N/NC(N)=S)cc(Br)c1OCc1ccccc1F`, for which the “hERG current change (%, negative = inhibition) at 10uM” value is -11.8%.
Regarding `CC(=O)N1CCc2c(sc(NC(=O)Cc3ccccc3)c2C#N)C1`, the “hERG current change (%, negative = inhibition) at 10uM” value was found to be 11.6%.
`Cc1cc(=O)n2nc(N3CCCC(C(=O)NC4CCC(C)CC4)C3)sc2n1` (centres unmarked): the “hERG current change (%, negative = inhibition) at 10uM” value is listed as -0.297%.
For `COc1ccc(-c2nnnn2C(C)C)cc1S(=O)(=O)Nc1ccccc1` the value was -13.9%.
For `Cc1ccc(C)c(S(=O)(=O)N/N=C/c2ccc(C(=O)O)cc2)c1` the value was -0.036%; for `OC1O[C@H](c2ccc3c(c2)OCO3)[C@H]2CO[C@H](c3ccc4c(c3)OCO4)[C@@H]12` (some centres unmarked), -9.91%; for `O=C(OCc1c(Cl)cccc1Cl)c1ccncc1`, -6.56%.
Under `CCCCOc1ccc(-c2cn3ccccc3n2)cc1[N+](=O)[O-]` stands 22.9%.
For `CCN(CC)CCN(C)c1ccc(N2C(=O)C3CC=CCC3C2=O)cc1[N+](=O)[O-]` (centres unmarked), the “hERG current change (%, negative = inhibition) at 10uM” value is recorded as -6.16%.
For `Cc1ccc(NNC(=O)c2c(F)cccc2Cl)cc1Cl` the value was 2.13%; for `CC(=O)c1cccc(NS(C)(=O)=O)c1`, 2.28%.
For `O=C(c1ccc(-c2ccccc2)cc1)N1CCC(C(=O)N2CCCC2)CC1` the value was -19.8%.
For `Cc1cc2nc(CO)[nH]c2cc1C` the value was 14.9%.
With `Cc1c(Cl)cccc1NCC(=O)Nc1ccc(Cl)cc1F`, the “hERG current change (%, negative = inhibition) at 10uM” value was 18.8%.
For `COc1ccc(-c2nn(-c3ccccc3)cc2C(=O)NCCCn2ccnc2)cc1` the value was -39.4%; for `O=C(O)c1ccc(N/N=C/c2cc3c(cc2[N+](=O)[O-])OCO3)cc1`, 26.8%.
Under `CCCc1cc(=O)n2[nH]c(CCc3ccccc3)nc2n1` stands 14.1%; under `COCCOc1nc2ccccc2nc1C`, -2.05%; under `CN1CCN(S(=O)(=O)c2ccc(Oc3cccc(C(F)(F)F)c3)nc2)CC1`, -12.8%.
For `CCOc1ccc(OCC)c(-c2c(=O)n(OCc3ccc(Cl)cc3)c3ccccc3[n+]2[O-])c1` the value was -9.58%; for `COc1cccc2[nH]c(C(=O)NC(C)c3ccccc3)cc12` (centres unmarked), -24.6%.
With `O=C(CSc1nc2ccccc2c(=O)n1Cc1ccco1)NCc1ccco1`, the “hERG current change (%, negative = inhibition) at 10uM” value was -65.4%.
`Cc1ccc(-c2nnc(N)s2)cc1`: the “hERG current change (%, negative = inhibition) at 10uM” value is on record as 15.4%.
For `Clc1ccc(-c2n[nH]c3c2CCCC3)cc1`, the “hERG current change (%, negative = inhibition) at 10uM” value is listed as -3.33%.
For `CC(=O)NC1C(=O)N=C(SCC(=O)NC2CCCCC2)NC1=O` (centres unmarked) the value was 12.6%.
For `CCCCN=C(C)C1=C(O)CSC1=O` the value was 10.2%; for `O=C(COc1ccc(Cl)cc1)Nc1ccc(N2CCN(C(=O)c3ccco3)CC2)cc1`, -21.1%.
Under `Nc1nc(N2CCOCC2)nc2ccccc12` stands -19.7%; under `COc1ccc(N2C(=O)C3CC=C(Cl)CC3C2=O)cc1` (centres unmarked), -0.738%; under `CNC(=O)/C(C#N)=C/c1cn(CC(=O)NCc2ccco2)c2ccccc12`, 13.7%.
On to `CCOc1ccc(NC(=S)N2CCn3c(nc4ccccc43)C2)cc1`, for which the “hERG current change (%, negative = inhibition) at 10uM” value is listed as -44.7%.
For `COC(=O)Nc1ccc(S(=O)(=O)N2CCCC(C(=O)NC3CCCCC3)C2)cc1` (centres unmarked) the value was 4.76%; for `O=c1oc2ccccc2c(O)c1[C@H]1c2ccc(O)cc2Oc2c1c(=O)oc1ccccc21`, 7.55%.
As for `Cc1onc(-c2ccccc2)c1C(=O)NC(=S)NNC(=O)c1ccccc1O`, the “hERG current change (%, negative = inhibition) at 10uM” value stood at 9.31%.
Under `O=C(CSc1nnc(Cc2cccs2)n1Cc1ccco1)Nc1ccc(Cl)cc1Cl` stands -57.1%; under `N#CC(C(=O)Nc1cccc(Cl)c1)=C1Nc2ccccc2N1`, 13%; under `COc1ccc(CNc2nc3c(c(=O)n(Cc4ccc(Br)cc4)c(=O)n3C)n2C)cc1`, -10.8%.
In the case of `O=C(C[n+]1ccccc1)Nc1ccccc1`, the “hERG current change (%, negative = inhibition) at 10uM” value is listed as 7.93%.
Under `COc1ccc(/C=N/NC(=O)c2ccncc2)cc1COc1ccc(NC(C)=O)cc1` stands -22.9%; under `Cc1ccc(S(=O)(=O)N2CCOC2C(Cl)(Cl)Cl)cc1` (centres unmarked), 4.64%.
For `Cc1cc(-c2ccccc2)nc2c(Br)c(=O)[nH]n12` the value was 20.9%; for `O=C(C1CCCN1S(=O)(=O)c1cccc2cccnc12)N1CCn2c1nc1ccccc12` (centres unmarked), -50.8%.
Under `CC1(C)CC(CC(=O)O)(c2ccccc2)CCO1` (centres unmarked) stands -1.62%; under `Cc1cc(C)c(OCC(=O)N/N=C/c2ccco2)c(C)c1`, -3.8%.
Turning to `Cc1nn(C2CCS(=O)(=O)C2)c(C)c1CN(C)C(=O)c1ccccc1` (centres unmarked), the “hERG current change (%, negative = inhibition) at 10uM” value came out at 0.783%.
Under `COc1ccc(O)c(C(=O)c2cnc3c(c2)c(C)nn3C)c1` stands 17.9%; under `CNS(=O)(=O)c1cccc(C(=O)Nc2cccnc2)c1`, -0.468%.
For `N#C/C(=C/c1ccccc1)C(=O)NCc1ccccc1` the value was 30%; for `CC(=O)c1cccc(NC(=O)Cc2cccs2)c1`, 1.91%.
Under `CN(C(=O)CSc1ccncc1)C1CCCN(Cc2ccccc2F)C1` (centres unmarked) stands -19.3%.
Regarding `COc1cccc(OC)c1C(=O)N1CCN(C(=O)c2ccc(-c3ccccc3)cc2)CC1`, the “hERG current change (%, negative = inhibition) at 10uM” value is recorded as -9.56%.
For `C=CCOC(=O)Nc1c(C(=O)OC)[nH]c2ccccc12` the value was 12.9%; for `COc1cccc(N/C(N)=N/c2nc(CSc3ccccn3)cc(=O)[nH]2)c1`, 8.04%; for `O=C(CSc1nnc(COc2ccccc2)o1)Nc1ccc(F)cc1`, 11.5%.
For the molecule `CCOc1ccc(C(=O)NCCN(C)C)cc1`, the “hERG current change (%, negative = inhibition) at 10uM” value is recorded as -10.8%.
For `CCN1CCN(c2nc(N)c([N+](=O)[O-])c(Nc3ccc(C)c(C)c3)n2)CC1` the value was -6.91%; for `COc1cc(OC)cc(C(=O)Nc2nnc(NC(=S)Nc3ccccc3)s2)c1`, 25%.
For `Cc1ccc(N(C(=O)CNC(=O)c2ccco2)C(C(=O)NC2CCCC2)c2cccnc2)c(C)c1` (centres unmarked) the value was 10.1%; for `COc1ccc(C2CC(=O)C(C=NCCN3CCN(C(=S)Nc4ccccc4)CC3)=C(O)C2)cc1` (centres unmarked), -32.8%; for `CCc1nc(NCCCn2ccnc2)c2oc3ccccc3c2n1.Cl`, -56.1%.
For `CCN1C(=O)[C@@H]2[C@H](C1=O)[C@@H]1C(=O)Nc3ccccc3C(=O)N1[C@@H]2c1cccc(Cl)c1` the value was -39.1%; for `O=C(CSc1ccc2nnc(-c3ccccn3)n2n1)NCC1CCCO1` (centres unmarked), -8.53%; for `CS(=O)(=O)Nc1ccc2[nH]c(=O)[nH]c2c1`, 17.4%.
On to `CCCc1c(C(=O)Nc2cc(C)on2)cnn1-c1ccccc1`, for which the “hERG current change (%, negative = inhibition) at 10uM” value was determined as 8.73%.
For `O=C(N/N=C/c1ccccc1Br)c1cccc(S(=O)(=O)N2CCOCC2)c1` the value was -18.2%.
On to `C=CCn1cc([N+](=O)[O-])nc1C`, for which the “hERG current change (%, negative = inhibition) at 10uM” value stood at 8.88%.
Under `CCOC(=O)N1CCN(S(=O)(=O)c2ccc(OCC(=O)OC)c(C)c2)CC1` stands -27.2%; under `CCC(=O)c1ccc(N2CCN(C(=O)c3ccc(Br)cc3)CC2)c(F)c1`, -16%; under `COC(=O)c1ccc(NC(=S)NC2CCCCC2C)cc1` (centres unmarked), -17.1%.
Under `CCOc1ccccc1C1c2cc3c(cc2OC(C)(N2CCCC2)C1C)OCO3` (centres unmarked) stands -8.46%.
On to `Cc1cc2oc(=O)cc(CN3CCN(S(=O)(=O)c4cccs4)CC3)c2cc1C(C)C`, for which the “hERG current change (%, negative = inhibition) at 10uM” value turned out to be 0.126%.
For `COC(=O)C/C=C/[C@@H](C)[C@@H](/C=N/OC[C@H]1O[C@H](c2ccccc2)C=C[C@@H]1Oc1ccc(OC)cc1)OC` the value was -1.9%; for `O=C(O)C(=O)O.c1ccc(-c2ccccc2OCCCCN2CCCCCC2)cc1`, -77.5%; for `CCOP(=O)(OCC)C(O)c1ccc(N(C)C)cc1` (centres unmarked), 10.5%.
